Laboratory results: PubChem BioAssay AID1030 (National Center for Advancing Translational Sciences (NCATS), 2008)
Hit rate of the full screen: of about 220,000 compounds, about 16,000 (7.3%) were called active. The inconclusive results got no clear call from the source; some entries with a clear call stand among them for comparison. The call rests on the fitted dose curve; in most records, active means well fitted inhibition curve with a large enough effect (not every such curve was filed as active); inconclusive means small, poorly fitted or top-dose-only effect, or another doubt; inactive means no such curve, though single readings can be large or run the other way. Potencies of inconclusive entries are left out as doubtful fits.

biological target: Aldehyde dehydrogenase 1A1 (Homo sapiens) (UniProt P00352); assay: qHTS Assay for Inhibitors of Aldehyde Dehydrogenase 1 (ALDH1A1); details: Purified ALDH1A1, NADH fluorescence, propionaldehyde substrate; series mostly up to 75.3 µM; activity, negative = inhibition: at the top concentration;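 on activity, negative = inhibition: plate controls were no enzyme wells and a reference inhibitor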
Chain of UniProt P00352 (P00352 whole entry, looked up): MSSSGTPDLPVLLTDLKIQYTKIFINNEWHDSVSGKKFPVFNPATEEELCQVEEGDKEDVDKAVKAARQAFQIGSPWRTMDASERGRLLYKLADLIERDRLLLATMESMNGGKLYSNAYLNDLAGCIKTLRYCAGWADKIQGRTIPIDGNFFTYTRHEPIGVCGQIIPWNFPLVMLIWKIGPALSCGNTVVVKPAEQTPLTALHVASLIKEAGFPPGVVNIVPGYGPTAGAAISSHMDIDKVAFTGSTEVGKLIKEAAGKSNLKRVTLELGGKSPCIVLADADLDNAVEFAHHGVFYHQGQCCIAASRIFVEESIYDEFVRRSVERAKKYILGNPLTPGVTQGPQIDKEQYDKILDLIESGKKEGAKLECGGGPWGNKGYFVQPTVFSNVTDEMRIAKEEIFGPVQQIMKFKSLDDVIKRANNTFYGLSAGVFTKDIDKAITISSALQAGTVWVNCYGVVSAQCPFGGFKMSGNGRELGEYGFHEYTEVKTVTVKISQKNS
Potency means the concentration at half of the fitted maximal effect; tags describe the fitted curve by direction and shape.

Compound	activity, negative = inhibition	Potency
CCOC(=O)c1ccc(NC(=O)N(CC)CC)cc1	inactive: 12.3%	–
Nc1nc(Sc2ccc([N+](=O)[O-])c3nonc23)c2[nH]cnc2n1	–	active: 2 µM
Cc1cc(C)nc(SCc2ccc(F)cc2)n1	inactive: -1.84%	–
Cc1ccc(C(=O)N/C(=C\c2ccco2)C(=O)NCC2CCCO2)cc1C (stereo not drawn)	–	inconclusive [inhibitor, single point]
CC(C)Sc1nnc(NC(=O)c2ccco2)s1	–	active: 14.1 µM
O=c1[nH]c(=O)c2ncc(-c3ccc(Cl)cc3)nc2[nH]1	–	inconclusive [inhibitor, full curve]
Cc1ccc(S(=O)(=O)N/N=C/c2ccc(O)c(O)c2)cc1[N+](=O)[O-]	–	inconclusive [inhibitor, single point]
O=C(C1=C[C@@H](c2ccc(C(F)(F)F)cc2)C[C@@H](OCc2ccc(CO)cc2)O1)N1CCN(Cc2ccccc2)CC1	–	inconclusive [inhibitor, single point]
CCCCc1cc(=O)oc2c(CN3CCCC3)c(O)ccc12	–	inconclusive [inhibitor, partial curve]
CCN(CC)c1ccc(C=Nc2ccc(N(C)C)cc2)c(O)c1	–	inconclusive [inhibitor, single point]
O=C(CSc1ncn[nH]1)Nc1cc(S(=O)(=O)N2CCCC2)ccc1Cl	–	active: 15.8 µM
CC1CCC(n2c(=S)[nH]c3ccccc3c2=O)CC1 (stereo not drawn)	–	inconclusive [inhibitor, partial curve]
O=C(Nc1cccc2nsnc12)C1CC(=O)N(c2ccccc2)C1 (stereo not drawn)	–	inconclusive [inhibitor, single point]
COc1ccc(C2C(C(=O)N3CCN(c4ccccn4)CC3)CCC(=O)N2c2ccc(OC)cc2)cc1 (stereo not drawn)	–	inconclusive [inhibitor, partial curve]
Cc1ccc(NC(=O)Nc2cc(S(=O)(=O)N(C)C)ccc2C)cc1	inactive: -5.58%	–
CCOC(=O)c1c(C)oc2c(CN3CCN(C)CC3)c(Br)c(OC)c(O)c12	–	inconclusive [inhibitor, single point]
CC(=O)Oc1ccc2c(c1)Oc1cc(OC(C)=O)ccc1C21OC(=O)c2ccccc21	–	inconclusive [inhibitor, single point]
Cc1ccc2c(CC(=O)OCc3csc(C)n3)coc2c1	inactive: 6.12%	–
Cc1cccc2c1NC(C)CC2C (stereo not drawn)	–	inconclusive [inhibitor, single point]
COc1ccccc1NC(=O)CSc1nnc(COc2ccccc2OC)n1C	inactive: 15%	–
COc1cc(CN2CCC(C(=O)N3CCN(c4ccccc4F)CC3)CC2)cc(OC)c1O	–	inconclusive [inhibitor, single point]
C=CCn1c(COc2cccc(C)c2)nnc1SCC(=O)NC(=O)NCc1ccco1	–	inconclusive [inhibitor, single point]
CN1C(=O)CC(N2CCC(c3nc4ccccc4s3)CC2)C1=O (stereo not drawn)	–	inconclusive [inhibitor, single point]
Cc1nc2ccccc2nc1CSc1nncs1	–	inconclusive [inhibitor, single point]
CN(c1ccccc1)c1ccc(/C=C/[N+](=O)[O-])cc1	–	active: 8.91 µM

Compound	activity, negative = inhibition	Potency
COCCSc1ccccc1C(=O)Nc1ccc2c(c1)OCO2	inactive: -8.89%	–
Cc1ccc(-c2cc(C(=O)O)n(-c3ccc(S(N)(=O)=O)cc3)n2)cc1	inactive: 0.966%	–
C/C(=N\NC(=O)c1c(Br)c(C)nn1C)c1ccc(NC(=O)C(C)Oc2ccc(Cl)cc2C)cc1 (stereo not drawn)	inactive: -7.32%	–
O=C(/C=C/c1ccc(O)c(O)c1)OC1C(O)CC(OC(=O)/C=C/c2ccc(O)c(O)c2)(C(=O)O)CC1O (stereo not drawn)	inactive: 3.74%	–
COc1ccc2nc(SCC(=O)Nc3ccccc3C)[nH]c2c1	–	inconclusive [inhibitor, single point]
COc1cc(/C=N/NC(=O)c2cccnc2)ccc1OCC(=O)Nc1ccc(C)cc1	–	inconclusive [inhibitor, partial curve]
Nc1c(N=Nc2ccc(-c3ccc(N=Nc4cc(S(=O)(=O)O)c5ccccc5c4N)cc3)cc2)cc(S(=O)(=O)O)c2ccccc12	–	active: 25.1 µM
N#C/C(=C\C=C\c1ccccc1[N+](=O)[O-])c1nc(-c2ccc3c(c2)OCO3)cs1	inactive: 1.53%	–
COC(=O)CCN(C(=O)c1ccc(C)c([N+](=O)[O-])c1)c1ccccn1	–	inconclusive [inhibitor, partial curve]
COc1ccc(S(=O)(=O)Cc2ccc(C(=O)N3CCN(C4CCCCC4)CC3)o2)cc1	–	inconclusive [inhibitor, single point]
CCCCC[C@H](O)/C=C/C=C/C=C/[C@@H](O)C/C=C\CCCC(=O)O	inactive: 4.19%	–
CC#CCN1c2ccccc2[C@]23C[C@@H](C(=O)OC)N(S(=O)(=O)c4ccc5c(c4)OCCN5C)C2=NC(C(=O)OC)=C(C(=O)OC)[C@H]13	inactive: -6.25% [at 13.5 µM]	–
CC(C)(C)NC(=O)c1nc2ccccc2s1	–	inconclusive [inhibitor, single point]
CSc1nsc(/C=C/Nc2ccc(C(=O)O)cc2)c1C#N	–	active: 10 µM
COc1ccc(S(=O)(=O)Nc2cccc(Cl)c2)cc1OC	–	inconclusive [inhibitor, single point]
CC1(C)CC(=O)C(C(C2=C(O)CC(C)(C)CC2=O)c2ccco2)C(=O)C1 (stereo not drawn)	–	inconclusive [inhibitor, partial curve]
C=C(C)Cn1c(SCC(=O)NCc2ccco2)nc2sc3c(c2c1=O)CCC3	–	active: 11.2 µM
CSc1nnc(Cn2c(=O)sc3ccccc32)n1CCc1ccccc1	inactive: -0.271%	–
Fc1ccc(N=C2NN=C(c3cc(F)ccc3F)CS2)cc1	–	inconclusive [inhibitor, single point]
c1ccc(-c2nnc(N3CCOCC3)c3ccccc23)cc1	–	inconclusive [inhibitor, full curve]
Cc1c(NC(=O)c2ccc3c(c2)C(=O)N(CC2CCCO2)C3=O)cccc1C(=O)O (stereo not drawn)	–	inconclusive [inhibitor, partial curve]
COc1ccc(N(CCC#N)S(=O)(=O)c2ccc(Cl)cc2)cc1	–	inconclusive [inhibitor, single point]
COc1cc(/C=N/NC(=O)c2ccc(F)cc2)ccc1OC(=O)c1ccco1	inactive: 4.03%	–
O=C(CCCOc1ccccc1)NCCc1nc2ccccc2[nH]1	inactive: -8.68%	–
CN(C)CCNc1oc(-c2ccccc2F)nc1C#N	–	inconclusive [inhibitor, partial curve]

Compound	activity, negative = inhibition	Potency
C/C=N\NC(=O)CNC(=O)CNC(=O)c1ccccc1	inactive: 11.9%	–
Cc1oc2ccccc2c1-c1cn2c(n1)SCC2	–	inconclusive [inhibitor, partial curve]
Cc1cc(NCc2ccccc2)nc2ccccc12	–	inconclusive [inhibitor, single point]
Cc1ccc(-c2noc(-c3cc4ccccc4oc3=O)n2)cc1	–	inconclusive [inhibitor, single point]
CCCCNC(=O)Cc1c(OC)ccc2cc(Br)ccc12	inactive: 0.222%	–
COc1cccc(OCc2nnc(SCc3cc(=O)[nH]c4ccccc34)o2)c1	–	inconclusive [inhibitor, single point]
CC(C)(C)C(=O)CSc1nc(N)cc(=O)[nH]1	–	inconclusive [inhibitor, single point]
N#C/C(C(=O)c1ccccc1)=C1/SC=C(N)N1c1ccccc1	–	active: 3.16 µM
NC(=S)NNC(=S)Nc1ccccc1	–	active: 22.4 µM
Cc1cc(C(=O)COc2cc(F)ccc2[N+](=O)[O-])c(C)n1C1CC1	inactive: -15%	–
CCn1c(CNC(=O)Cc2ccc(OC)cc2)nnc1SCC(=O)Nc1nccs1	inactive: 13.7%	–
Cc1nc2ccccc2nc1NS(=O)(=O)c1ccc(N)cc1	–	inconclusive [inhibitor, single point]
COc1cc([N+](=O)[O-])ccc1NC(=O)Nc1nc2c(s1)CCCC2	inactive: 9.33%	–
COc1ccc(C(=O)Nc2ccc(-c3ccc(NC(=O)c4ccc(OC)cc4)c(OC)c3)cc2OC)cc1	–	inconclusive [inhibitor, partial curve]
Cc1ccc(CCNC(=O)c2nnn(-c3cccc(C)c3)c2N)cc1	–	inconclusive [inhibitor, single point]
Nc1c(C(=O)Nc2nccs2)sc2nc(-c3cccs3)cc(C(F)(F)F)c12	–	inconclusive [inhibitor, full curve]
COc1ccc2[nH]cc(CCNc3cc(-c4c(C)noc4C)ncn3)c2c1	–	inconclusive [inhibitor, single point]
COc1ncc2ncc(=O)n(Cc3cccs3)c2n1	–	inconclusive [inhibitor, partial curve, poor fit]
COc1ccc(C2=C(Nc3ccc(C)cc3)c3ccccc3C2=O)cc1	inactive: 7.4%	–
N#CCC(=O)N/N=C/c1ccc(OS(=O)(=O)c2ccccc2)cc1	–	inconclusive [inhibitor, partial curve]
COc1ccc2c(c1)CCc1sc(NC(=O)c3ccc(C)cc3)nc1-2	–	inconclusive [inhibitor, single point]
O=S(=O)(NCc1ccccc1F)c1cccc(S(=O)(=O)N2CCOCC2)c1	inactive: 15.3%	–
COCC(=O)N1CCCC(C(=O)c2ccc3c4c(cccc24)CC3)C1 (stereo not drawn)	–	inconclusive [inhibitor, partial curve]
